Measured values: publication PMC12136788
Some of the results follow.

B1: ENSG00000075624:stop:overlap|stop_codon|ENSG00000075624|stop_codon|NA|stop_codon (ssRNA)
RNA: GGGAGUUCUACAGUCCGACGAUCGGAUCAGCAAGCAGGAGUAUGACGAGUCCGGCCCCUCCAUCGUCCACCGCAAAUGCUUCUAGGCGGACUAUGACUUAGAUUUAAAAACUGGAACGGUGAAGGUGACAGCAGUCGGUUGGACAACAGAGGAUUGAGCAUCA
B2: chr10:32268825:32268926:-|3pUTR|ENSG00000120616|unk|total|mutant (ssRNA)
RNA: GGGAGUUCUACAGUCCGACGAUCUGGGGACUUGACAGCAAUGCUCAUCUCUCAUGCUUCAAUUUUUCUUUUCUUACUGUUAACCGGAAAAAAAUCAACAUCUGUAAAUUAAGAAUACAGCAAUUAUCUGUACAGUACUGCAUACAACAGAGGAUUGAGCAUCA
B3: chr5:72990507:72990614:+|CDS|ENSG00000157107|unk|total|mutant (ssRNA)
RNA: GGGAGUUCUACAGUCCGACGAUCGUAUGGGAUGUAUUCAAAACAUCUACAGAGAAAUCCGCAAAUUGUCACUUGGAUCUUGUCCGAAAAUUACAAGAAUUAAUAAAGGAAGUUCAGAAGUAUGGAGAAGAACAAGUAAAGUCUCAACAGAGGAUUGAGCAUCA
B4: chr13:106490488:106490589:-|3pUTR|ENSG00000125266|msi1|total|mutant (ssRNA)
RNA: GGGAGUUCUACAGUCCGACGAUCAGCCAUCAGAAGUUACUUUCCGGAUGGGGGAGAGGGGCGAGAAGGGGAAAAAUGGGAAACCGUCUGAUUUUAAUGAAAUCAAAUGUAUGUAUCAUCAGUUGGCUACGUUUUGGUUCUAUGCAACAGAGGAUUGAGCAUCA
B5: chr13:98915392:98915499:-|CDS|ENSG00000088387|unk|total|mutant (ssRNA)
RNA: GGGAGUUCUACAGUCCGACGAUCUCAUUUCAGAACAACAAAGUCAGGCGUUUUGCUUUUGAGCUCAAGAUGCAGGACAAAAGCCGUUAUCUCUUGGCAGCAGACAGUGAAGUGGAAAUGGAAGAAUGGAUCACAAUUCUAAAUCAACAGAGGAUUGAGCAUCA
B6: chr4:110049619:110049852:-|3pUTR|ENSG00000170522|msi1|FALSE|unique (ssRNA)
RNA: GGGAGUUCUACAGUCCGACGAUCUUGUUCAAUGUGACAUAAUAGUAUUAUAAUUGGUUAAGUAGCUUAAUGAUUAGGCAAACUAGAUGAAAAGAUUAGGGGCUUCCACACUGCAUAGAUUACACGCACAUAGCCACGCAUACACAACAGAGGAUUGAGCAUCA
B7: chr2:205797254:205797461:+|3pUTR|ENSG00000118257|msi1|FALSE|unique (ssRNA)
RNA: GGGAGUUCUACAGUCCGACGAUCUCACCCUCCCAUGAUGCGCAGUGUUCAGAAAGCUGGUAAGUCCUAGGGAUUUCCAGAAGUAGCCUGCAGAAGAAGGUAAGUUUGAAAGCCACUCCAGGGGUCCUGAUGCUGUCAUGCUCACAACAGAGGAUUGAGCAUCA
B8: chr1:108222463:108223704:-|three_prime_utr|ENSG00000196427|control|control|control (ssRNA)
RNA: GGGAGUUCUACAGUCCGACGAUCACUAUGCUCCUUUGAUUUGAGAAGCCACAUUCCAUCCCCCUCCAAUUGUGAUCAAUACCUAGGGAGACCAAUGCCCAGAUGGACAAAUAGCAUUGACCGGCGUUAGCCCUGUUUCUCAAUCAACAGAGGAUUGAGCAUCA
B9: ENSG00000198589:be:win_351|CDS|ENSG00000198589|bound_else_gene|NA|bound_elsewhere_windowed (ssRNA)
RNA: GGGAGUUCUACAGUCCGACGAUCUCUGAAGAAAAGCAUACGGAAUCUUCAAGUCUGCACUGAAGUAGGCCUUGUUGAAAAAGUGCUUGGGAAAAUUGAAAAAGUUGACAAUAUGAUAGCAGAUCUUUUGGUUGACAUGUUGGGCAACAGAGGAUUGAGCAUCA
B10: chr11:118254921:118255022:-|3pUTR|ENSG00000149573|unk|total|mutant (ssRNA)
RNA: GGGAGUUCUACAGUCCGACGAUCACAGCCUCAUUAUUAAGGUCUUAUUUAAUUUCAGAGUGUAAAUUUUUUCAAGUGCUCAUCCGGUUUUAUAAACAAGAAGCUACAUUUUUGCCCUUAAGACACUACUUACAGUGUUAUGACCAACAGAGGAUUGAGCAUCA
B11: chrX:101268252:101269192:-|three_prime_utr|ENSG00000102387|control|control|control (ssRNA)
RNA: GGGAGUUCUACAGUCCGACGAUCGUUGAAUCAGUUAUAUUUAUCUGUACCUUCUUUGCUACUUAAAAUAUGCUCACAGUUUGUAGUCAUGUAGAAAAGGCCAGUAUAAAAAUGUAGUAGACUUAAAGACCCCACUCGACCAUGCAACAGAGGAUUGAGCAUCA
B12: chr22:21445082:21445183:+|CDS|ENSG00000169635|msi1|FALSE|bound_elsewhere (ssRNA)
RNA: GGGAGUUCUACAGUCCGACGAUCCCUGUGUGACGUCAUCAUCAUGGUGGAGAACUCCAUCUUCCGGGCCCACAAGAACGUCCUAGCCGCCAGCAGCAUCUAUUUCAAGUCCCUGGUCCUGCACGACAACCUCAUCAACCUGGACAACAGAGGAUUGAGCAUCA
B13: chr7:27153715:27154908:-|three_prime_utr|ENSG00000122592|control|control|control (ssRNA)
RNA: GGGAGUUCUACAGUCCGACGAUCAAAAGACACCCCCAACCCCAGGCCAGCCGGCCCUGCUCUGGCGCGUCCAAAAUACUACCUAGCACAGGCCUCUGCUCGAGGCACCCCCAAACUACCUAUGUAUCCAGCCCCAGAGGGCCUCAACAGAGGAUUGAGCAUCA
B14: chr17:8173470:8173636:-|3pUTR|ENSG00000179029|msi1|FALSE|unique (ssRNA)
RNA: GGGAGUUCUACAGUCCGACGAUCUGUUUGUCUGUAUCGUCAGGUGGGAUAAUCCUUACCUGUUCCUCCUCCGGAGGGCAGAUUAGAACAUGAUGAUUGGAGAUGCAUGAAACGUGAUUAACGUCUCUGCGUAAUCAGGACUUGCAACAGAGGAUUGAGCAUCA
B15: chr1:52238154:52238269:+|CDS|ENSG00000157077|unk|total|mutant (ssRNA)
RNA: GGGAGUUCUACAGUCCGACGAUCUCUGACCGUCCCGCCAGUGUCUGUUCCCCUUCACAAUUAAAGGAUGACGGAAGUACCGGCCGAGACCCCUCCAUGUCUGCGAUUACAAGUUUAACGGUUGAUUCAGUAAUCUCAUCCCAGCAACAGAGGAUUGAGCAUCA
B16: chrX:129805617:129805718:-|3pUTR|ENSG00000188706|msi1|total|mutant (ssRNA)
RNA: GGGAGUUCUACAGUCCGACGAUCUCUUUUCCCAUCCGAUAUAUGUAAGCCGUUGCCGCCGAGAUAAUAAUUGACAUUUCUCGCCGACUACCCAGAAACUUUUUUAAUACCUGUGCCAUUCUCAAUAAGAAUUUAUGAGAUGCCCAACAGAGGAUUGAGCAUCA
B17: chr10:91630394:91630495:-|CDS|ENSG00000119938|unk|total|mutant (ssRNA)
RNA: GGGAGUUCUACAGUCCGACGAUCCUUGGACCUUAAUGAUAUCUCCUCUGCCUUAAAACACCACGAGGAGAAAAACUUGAUUUCCGAUUUCCCUCAGCCUUCAACCGAUUACUUAAGUUUCCGGAGCCACUUUCAGAAGAACUUCAACAGAGGAUUGAGCAUCA
B18: chr16:48080881:48083801:-|three_prime_utr|ENSG00000140798|control|control|control (ssRNA)
RNA: GGGAGUUCUACAGUCCGACGAUCUGAGUUUGACAAGCCUGAAGUCCUUGCAGAGAAGCCAGAUUCUGCAUUUGCGAUGUUACUAGCAGCAGAAGUCAGAUUGUAGAGGUCCUGGCGGCUGAUUCUAGAGGAGGAAGAGGCUCUCAACAGAGGAUUGAGCAUCA
B19: chr7:158693335:158693439:-|CDS|ENSG00000146918|unk|total|mutant (ssRNA)
RNA: GGGAGUUCUACAGUCCGACGAUCAAGGAAACAGAAAGAAGAAUUAUGGCAAAGGCUGAAGAAUUUAUUGACAGAUGUGUUGUCCGAAAGCCCAGUGGAUGGGUGGCAGGCCGUGGAAGCCCAGGGUGAAGACAAUAUGGAAACCAACAGAGGAUUGAGCAUCA
B20: chr1:205620050:205620151:-|CDS|ENSG00000158711|unk|total|mutant (ssRNA)
RNA: GGGAGUUCUACAGUCCGACGAUCGCCAAUGGAACUUCCAGAGAAUUUGUCACUGGAGCCUAAAGACCAGGAUUCAGUCUUGCCCGAAAAGGACAAAGUAAAUAAUUCAUCAAGAUCCAAGAAACCCAAAGGGUCCGAACUGGCCAACAGAGGAUUGAGCAUCA
B21: chr20:32237940:32238012:+|3pUTR|ENSG00000101346|msi1_unk|total|mutant (ssRNA)
RNA: GGGAGUUCUACAGUCCGACGAUCUUUCAAAGAUACAAAUAUUUACACCGUUUUAAUCAUGUAAUAUAUACAAUUUAAUGUCCCCGUGUUUUACUUAACCGUGUAUCAUGUUUUCCCUGUUGGUAUGCCGCCUGGAUAAAUGCUCAACAGAGGAUUGAGCAUCA
B22: chr8:43200960:43201061:+|3pUTR|ENSG00000165102|unk|total|mutant (ssRNA)
RNA: GGGAGUUCUACAGUCCGACGAUCCAAAUUCUAAGUGUUUUCUCUUCCGGUUUCCCUGGCUUUGUGAAUGGAUCAUGUGUCUCCCGGUAUAAACCUGACAUCAUCUUUCCACCCGGCUUACCUCCACCAGAUCUCCCCAGUUCUCAACAGAGGAUUGAGCAUCA

target: MSI1 full-length (mouse, UniProt Q61474 1-362); assay: nsRBNS (natural sequence RNA bind-n-seq); RBNS binding buffer (assumed for nsRBNS): 25 mM Tris pH 7.5, 150 mM KCl, 3 mM MgCl2, 0.01% Triton X-100, 500 ug/ml BSA, 20 U/ml SUPERase-In, 4 C; UNK is unkempt and MSI1 is Musashi-1; names of the RNAs are library labels; protein concentration not given here; high values mean tight binding
UniProt Q61474, sequence (Q61474 whole entry): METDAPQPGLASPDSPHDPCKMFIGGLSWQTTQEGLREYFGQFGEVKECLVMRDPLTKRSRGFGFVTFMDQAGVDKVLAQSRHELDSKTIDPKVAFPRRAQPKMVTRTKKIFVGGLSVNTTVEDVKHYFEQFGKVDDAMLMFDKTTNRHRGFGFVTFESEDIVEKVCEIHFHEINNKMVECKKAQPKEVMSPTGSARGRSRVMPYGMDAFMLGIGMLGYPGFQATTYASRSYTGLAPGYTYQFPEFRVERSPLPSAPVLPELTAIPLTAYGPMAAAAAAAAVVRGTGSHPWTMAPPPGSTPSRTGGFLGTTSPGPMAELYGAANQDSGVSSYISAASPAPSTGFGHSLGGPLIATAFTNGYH

Binder	binding signal [enrichment R]
B1	2.6
B2	0.443
B3	0.443
B4	0.665
B5	0.336
B6	43.1
B7	0.607
B8	0.521
B9	0.235
B10	0.983
B11	2.46
B12	0.576
B13	1.05
B14	0.433
B15	0.373
B16	0.608
B17	0.264
B18	0.754
B19	0.587
B20	0.692
B21	1.18
B22	0.548
